# Measured values taken from the supplement of paper PMC11417369.
# ± gives the standard deviation of the averaged measurements. This is one part of the list.
# Tested on: PfAP2-LT AP2 domain (GST-tagged)
# Experiment: gcPBM binding intensity (ln(normalized median fluorescence intensity)); higher = stronger DNA binding
# Procedure, shortened: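 In this array assay, P. falciparum DNA-binding domains with a GST tag, expressed in E. coli, were applied for 1 h to primer-extended double-stranded 36-bp intergenic genomic probes and negative controls on an Agilent 4 × 180k array. Bound protein was visualised with Alexa488 anti-GST antibody at 488 nm. Binding intensity is the highest Masliner-normalised natural-log median intensity across replicate spots of either probe orientation.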
row,Sequence,gcPBM binding intensity (ln)
1,TTTTTTTTTTTGTGTGCATGTGCTAGGAAAGGTAGG [TGCATGCA_site330],8.77 ± 0.47
2,AATAATATATAAGAAAGTACAAAAAAATAAAATAAA [XGTACX_site3302],8.82 ± 0.58
3,TTTTAATGAAATATCAAAAAAATTTATGATTTCAAA [GTGCAC_negctrl_site662],7.87 ± 0.47
4,AAAAAGAAAAAACTTACACACATATATACACCCATG [CACACA_site8079],9.41 ± 0.18
5,AATAGAATAATCCTTACACACACACCCACACGAATA [CACACA_site8053],9.87 ± 0.16
6,AACCAATATGCGTATACACACATAAATATAAATATA [CACACA_site3780],9.29 ± 0.4
7,TGTATAAAAAGAAAAAATCGTATGTGTTATCAAAAA [GTGCAC_negctrl_site490],8.46 ± 0.47
8,GTATTAATTTTAAGGTGTACGCAAAAAATTTAATTT [XGTACX_site718],8.63 ± 0.4
9,AACCAGTTGATGTGTACACATATAGTAATAATTTTA [CACACA_site5564],9.16 ± 0.52
10,TTTTTTTTTTTTTGAACACACATTATTAATTTTTAT [CACACA_site308],8.71 ± 0.52
11,ATATATTTTTTTTATACATGCAATGCATTTACGTTG [TGCATGCA_site565],9.02 ± 0.47
12,TTTTTTATATATTAGGAATTTATAAAATTAGAAGGT [GTGCAC_negctrl_site617],8.5 ± 0.33
13,ATATATATATATATATGTACATAATATATTATATAT [XGTACX_site924],9.26 ± 0.14
14,TTATTATATACAAAATGTACACAGAATAATTTGAAT [XGTACX_site2314],8.7 ± 0.41
15,TTTTTTTTTTTTTTGGTGCAGTTCACATATTATATA [GTGCAC_site9996],8.59 ± 0.42
16,TTTTGAATATATTAAATAAATTAAAAATCTACAAAC [GTGCAC_negctrl_site622],8.28 ± 0.35
17,AGATCATAATATTATACACACATTATATATCTGTAA [CACACA_site4925],9.14 ± 0.26
18,AAAAAAAAAAAAAAAAAAAAAAAAAAAAATAAAAAA [CACACA_negctrl_site59],8.44 ± 0.17
19,AAAATATTTAATAGAAGTACACATGTATATATACAT [XGTACX_site8942],8.84 ± 0.41
20,TATATTAACAAAATGGTGCAATAATTTCTATATTGT [GTGCAC_site9430],8.54 ± 0.38
21,TGTGTAAGCACATACAAACACACAACCTTATTTTTA [CACACA_site2187],8.97 ± 0.34
22,TTATTATATTAAAAGAGGACACATTTATTTTTTTTT [XGTACX_site1241],8.3 ± 0.47

row,Sequence,gcPBM binding intensity (ln)
1,ATATATATATATATTTGTACTTAATTGATTTTACTT [XGTACX_site2663],9.42 ± 0.4
2,ATGCGTTTAGCAAAAAGTACATATATATATAATATT [XGTACX_site1928],8.9 ± 0.43
3,ATTATTGATTTATAAACACACACTCGAAGATGTTTA [CACACA_site8294],8.88 ± 0.4
4,ATTTTTTCTAGACATGCATGTGAAATTTACTTTTTT [TGCATGCA_site305],8.84 ± 0.39
5,TTGAAATACTTTATTTGTACATATAGCAAAGTGTAT [XGTACX_site8782],8.57 ± 0.38
6,CTTTCTCTCAAAATGACATGCAATTTGTTTCTTTTT [TGCATGCA_site169],8.71 ± 0.67
7,AAAAAAATATATAATAGTACATATATAGGAATATAT [XGTACX_site4591],8.87 ± 0.52
8,TGAATACAGATATTCACACAAATAGTTTTGATATAT [CACACA_site5527],8.66 ± 0.45
9,TAATATCTTGAGTCATCACACATTGATTAATGAATC [CACACA_site5735],8.62 ± 0.42
10,CTTTTTTTTTTTTTTGCACACACATATATAAATATA [CACACA_site3950],9.38 ± 0.34
11,AGTGGAAATTTTATTTGTACATAAATATTTACATAC [XGTACX_site633],8.64 ± 0.34
12,TTTTTTTTTTTTTTTACACACTTTATTCAAACAACT [CACACA_site4104],8.72 ± 0.47
13,ATTTTTTTTTAATGCAATATATTTTGAAAATTTTAT [CACACA_negctrl_site753],8.38 ± 0.49
14,ATTGATACATCCAATACACACTACATATTATGATGT [CACACA_site6965],9.11 ± 0.47
15,TTGGCATACAGACACACACACACACCCCCACATATA [CACACA_site590],10.09 ± 0.085
16,AATTTATTAAAAAAATGTACTTATTTTTTTGTATAA [XGTACX_site5844],8.34 ± 0.49
17,TTTTTTTTTTTTTTTTTTTTTTTTTCATATTAATAT [GTGCAC_negctrl_site351],8.36 ± 0.39
18,AATATGGAATGAAATAACAATCGGGAGTATATTACC [CACACA_negctrl_site93],8.91 ± 0.49
19,TATATATATGTTCTTACACACACGAATATATATATG [CACACA_site3304],9.23 ± 0.28
20,ACATATTGTAGATATTGTACATATTGTGTATATATT [XGTACX_site7620],8.98 ± 0.45
21,TTGAATAAATTGGAATAAATATAATAAAATAAGGAA [XGTACX_negctrl_site302],8.67 ± 0.47
22,TACCAATAAATGAAGGTGCGTGCTTGCCTTTGCTAT,8.95 ± 0.31

row,Sequence,gcPBM binding intensity (ln)
1,CATACATATATTATTGCACACATATAAAATACCCCC [CACACA_site9292],9.7 ± 0.15
2,TAGGAATTTAATAAATGTACATATACATAATATATA [XGTACX_site3672],8.61 ± 0.49
3,TTGTATAGTCTGATATGTACATATATATATATATAA [XGTACX_site4307],9 ± 0.35
4,TATAAAAAATTAAAATTTTTCTTATTTTTTTTAGAT [TGCATGCA_negctrl_site125],7.98 ± 0.49
5,ACCACCAGGAACAAAGCACATTAGGAAAAATAAAAC [XGTACX_negctrl_site228],8.95 ± 0.48
6,TGGATACACAAAAATTAAAAAAATAAACAAACAAAT [GTGCAC_negctrl_site105],8.92 ± 0.49
7,TACTTTTATATGAATACACACAGGAATATAAATATG [CACACA_site7647],8.78 ± 0.36
8,AAAAAATAGTGGTATGCATGTCCCTTGTATTTTCTT [TGCATGCA_site587],8.96 ± 0.45
9,TCCTTACATTTTAAAACACACAAAAATTAATTGTTA [CACACA_site2313],8.47 ± 0.4
10,AAAATACCCATTTTAGTACACACTTAAAAAATTATT [CACACA_site8966],8.77 ± 0.41
11,AGACCTATGATATATACACACATATATTTATTTATA [CACACA_site6630],8.99 ± 0.45
12,ATTATAACACTTATTTCATTTGTATGCCCTTTAAAA [CACACA_negctrl_site955],8.66 ± 0.52
13,TATATAACTAAAATAACACACATATATAAAAATATA [CACACA_site7416],8.84 ± 0.42
14,TATAAATATTTTATTGTACACACTTTTTATGAATGA [CACACA_site3136],8.76 ± 0.47
15,TAATATTTCATTAGGTGTACACTACATAGTAGTAGA [XGTACX_site366],8.55 ± 0.35
16,GTTTGTTTGTTTGTTCGTACATATATAAAATAAAAA [XGTACX_site4731],8.45 ± 0.35
17,TTTTTTAAAATATGGACACACATATATATATCTGTA [CACACA_site5535],8.88 ± 0.38
18,TATGCAATATATTATATTCTGTAAATATTATATATT [TGCATGCA_negctrl_site67],8.41 ± 0.38
19,ATAATCAACATTAGGTGTACAAAATATGTATGTTTT [XGTACX_site6696],8.95 ± 0.47
20,TATATATTTTTTAATTGTACACTTCAAAAACAAAAA [XGTACX_site5595],8.18 ± 0.42
21,GTAGTTATATTAAGGGTGCTTAATTAGATTAAACAA,8.53 ± 0.47
22,TTCAAATTTCCACATACACACCTTGTAGATATATAT [CACACA_site7984],8.95 ± 0.49

row,Sequence,gcPBM binding intensity (ln)
1,AGAATAAATAAATATTGTACATATAAAATATATATA [XGTACX_site896],8.71 ± 0.48
2,ATTGAACACATCTATGCATGCACGGAAAAAAGTACA [TGCATGCA_site401],9.24 ± 0.35
3,AAAAACTTAATATTGACACACATTTTTAAGAATAAT [CACACA_site4291],8.67 ± 0.41
4,AATGTCAGTATGCGAGGTACACGTATAAAAATTACA [XGTACX_site4109],8.95 ± 0.56
5,TATTATAATAAACCTATACACACATAAATAAATAAA [GTGCAC_negctrl_site627],8.92 ± 0.44
6,AGGAAATTTGTTATTGCACACAAATTTTTCTTTTTT [CACACA_site8732],8.85 ± 0.38
7,TTTTACTAAATATATACACACATTATACAGATATAT [CACACA_site5765],8.94 ± 0.44
8,TACATAAATTAAAACACACACACACTAGAAAAAAAA [CACACA_site5278],9.955 ± 0.064
9,AAAAATAAAATATATACACACATATATATATATATA [CACACA_site2943],9.765 ± 0.035
10,TTTTAAATTGGAGTGGGCAGATTGATATTATTCTTC [GTGCAC_negctrl_site191],8.95 ± 0.092
11,ACATATATATATATGTGTACATATTTATACAACAAT [XGTACX_site6660],9.12 ± 0.41
12,TTTTTAATTTTGTGGGTGCTTTCGTGTTATTATATA,9.04 ± 0.39
13,TGTCACATAATTTATGCACACAATGATTATGCTTAA [CACACA_site2358],9.01 ± 0.31
14,AAGTATAAATTAAAATGTACTTATAAAAAAAAAGAA [XGTACX_site7028],8.7 ± 0.54
15,TATGTATGTATGTATGCATGTGTAACACCTAAATAT [TGCATGCA_site361],8.99 ± 0.28
16,ACATATATTGTACATACACACCTATATAAATATCCT [CACACA_site7503],9.07 ± 0.36
17,CCATATTTCATTAATGAACACACAAAGAGGTATATA [CACACA_site8431],8.89 ± 0.52
18,TATATATATATACCAACACACATACATATATATATA [CACACA_site8530],9.38 ± 0.14
19,TAAAAAATAAAAATTGCACACTAAAAAATTACGCAC [CACACA_site9129],8.76 ± 0.41
20,GAATAAAAAATTGGCACACATAAATATATGGATATA [CACACA_site3047],8.97 ± 0.47
21,TTCAACATATTAAAAAGTACAGAATATAACATTATA [XGTACX_site1361],8.59 ± 0.47
22,AATAAATTTAGACACACACACACATATAAATAAATA [CACACA_site6531],10.1 ± 0.23
